Measurements from PubChem BioAssay AID1159614 (National Center for Advancing Translational Sciences (NCATS), 2016).
Out of some 45,000 compounds screened, about 65 (0.1%) were called active. The call rests on the fitted dose curve; in most records, active means well fitted activation curve with a large enough effect; inconclusive means small, poorly fitted or top-dose-only effect; inactive means no such curve, though single readings can be large or run the other way. This is one part of the list.

molecular target: Galactocerebrosidase (Homo sapiens) (UniProt P54803); assay: A Novel Cell-Based Assay to Identify Small Molecules for B -Galactocerebrosidase; conditions: 145M-Twi-hGALC-G270D cells (Twitcher mouse brain line with human GALC G270D), HMU-beta-Gal fluorescence, 48 h; series mostly up to 57.5 µM; activation: at the top concentration; further: 0% is about no effect; nearly all actives have a fitted effect of over 65% in size
Summary of the method: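 Live 145M-Twi cells (Twitcher mouse brain-derived, GALC-null) stably expressing human GALC-G270D, with a wild-type GALC line, were compound-treated. Residual GALC activity was then read as fluorescence from 0.1 mM final HMU-β-gal at pH 5.2; higher signal means activation.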

Sequence of UniProt P54803 (P54803 whole entry, looked up): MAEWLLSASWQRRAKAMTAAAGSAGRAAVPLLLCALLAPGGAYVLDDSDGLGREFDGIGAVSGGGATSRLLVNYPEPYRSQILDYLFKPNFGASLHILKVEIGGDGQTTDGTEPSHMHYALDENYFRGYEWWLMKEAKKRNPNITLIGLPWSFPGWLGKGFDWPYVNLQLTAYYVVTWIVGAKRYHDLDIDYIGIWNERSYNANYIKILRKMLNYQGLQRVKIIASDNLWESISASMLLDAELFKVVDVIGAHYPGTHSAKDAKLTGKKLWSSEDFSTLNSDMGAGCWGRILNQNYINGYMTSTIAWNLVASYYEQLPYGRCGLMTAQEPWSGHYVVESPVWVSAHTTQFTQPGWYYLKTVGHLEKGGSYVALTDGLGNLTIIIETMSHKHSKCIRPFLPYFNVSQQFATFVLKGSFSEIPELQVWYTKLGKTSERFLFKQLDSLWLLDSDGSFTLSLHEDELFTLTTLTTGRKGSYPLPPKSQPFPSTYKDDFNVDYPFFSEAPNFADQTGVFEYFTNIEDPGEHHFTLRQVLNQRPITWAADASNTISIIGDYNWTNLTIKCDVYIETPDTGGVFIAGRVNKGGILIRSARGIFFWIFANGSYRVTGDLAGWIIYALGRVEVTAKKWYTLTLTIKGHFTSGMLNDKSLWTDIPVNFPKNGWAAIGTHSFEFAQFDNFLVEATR

activation, inactive:
COc1ccc(-c2nnc(Nc3ccc(OC)c(C(N)=O)c3)c3ccccc23)cc1 -19.8%
CCOc1ccccc1NC(=O)C(=O)c1cc(C)n(-c2ccc(F)cc2)c1C -15.9%
CCOc1ccc(-n2cc(-c3ccccc3)c3c(N4CCC(C)CC4)ncnc32)cc1 -1.02%
O=C(CCSCc1cccc(F)c1)NCc1ccccc1 -14.7%
COc1ccc(Cl)cc1NC(=O)Cn1c(=O)n(CCCC(=O)NCCc2ccc(OC)c(OC)c2)c(=O)c2ccccc21 -5.67%
O=C(c1ccc2c(c1)CCCC2)N1CCN(c2nc3ccc(F)cc3s2)CC1 -13.6%
CCCOc1ccc(CNC(=O)Cn2cc3c(n2)-c2c(oc(C(=O)N4CCOCC4)c2C)CC3)cc1 -9.27%
CCc1ccc(S(=O)(=O)NCc2nc3cccnc3n2Cc2ccccc2Cl)cc1 -8.1%
COc1cccc(-n2c(SCC(=O)N3CCCc4ccccc43)nc3c([nH]c4ccccc43)c2=O)c1 -12%
COc1cc(NC(=O)NC(C)c2c(-n3cccc3)sc3c2CCN(C)C3)cc(OC)c1 (stereo not given) 3.66%
COc1ccc(S(=O)(=O)c2cc3cc(OC)ccc3oc2=O)cc1 -4.88%
Cc1ccc(NC(=O)Cn2c(=O)n(CCCS(=O)(=O)C3CCCCC3)c(=O)c3ccccc32)cc1F -5.12%
CC(NC(=O)c1ccc(Cn2c(=O)c3cccn3c3cccnc32)cc1)c1ccccc1 (stereo not given) -11.9%
CCN1CCN(c2c(S(=O)(=O)c3ccc(Cl)cc3)cnc3ccccc23)CC1 -7.28%
COc1ccc(C(=O)c2oc3ccccc3c2NC(=O)COc2ccc(C)cc2)cc1 -11.9%
Cc1ccc(C)c(Nc2nc3c(S(=O)(=O)c4ccc(Br)cc4)nnn3c3ccsc23)c1 -7.17%
CCc1ccccc1NC(=O)N1CCc2cc(OC)c(OC)cc2C1CC(=O)OC (stereo not given) -18.7%
COc1cc(C2c3c(-c4c(C)cc(C)cc4O)n[nH]c3C(=O)N2CCCOC(C)C)cc(OC)c1OC (stereo not given) -0.67%
CCN1CCN(c2cc(-c3ccc(F)cc3)c3c(n2)CCCCCC3)CC1 -6.54% [at 23.8 µM]
CCc1ccccc1NC(=O)CN1C(=O)COc2ccc(S(=O)(=O)Nc3ccccc3)cc21 -11.4%
CCC1CN(S(=O)(=O)c2ccc3c(c2)NC(=O)CC(=O)N3)c2cc(Cl)ccc2O1 (stereo not given) -16.6%
Cc1cccc(N2CCN(C(=O)CCC(=O)NNc3nc4ccccc4c4nc(C)nn34)CC2C)c1 (stereo not given) -20.3%
Cn1c(=O)c2c(-c3ccccc3Cl)n(Cc3ccc(Cl)cc3)cc2n(C)c1=O -14.3%
COc1ccc(S(=O)(=O)n2nc(-c3ccco3)nc2NCc2ccc(OC)c(OC)c2)cc1 -8.29%
COc1ccc(N(C(=O)c2ccc(Cl)cc2)S(=O)(=O)c2ccc(C)cc2)cc1 -12.2%
Cc1ccc(N2CC(c3nnc(Cc4ccccc4Cl)o3)CC2=O)cc1 (stereo not given) -10.2%
CCOc1ccc(CNCc2c(C(=O)O)n(Cc3ccc(OC)cc3)c3ccccc23)cc1 -14.6%
COc1ccc(-c2nc3c(C#N)c[nH]n3c2NC2CCCC2)cc1 -3.32%
COc1ccccc1Cc1nc2ccccc2nc1SCC(=O)Nc1ccccc1C(F)(F)F -0.996%
CCCN(c1ccccc1F)S(=O)(=O)c1cc(-c2cc(C)no2)ccc1C -4.28%
CC(C)(C)C1CCc2c(sc(NC(=O)c3cc(-c4ccc(F)cc4)on3)c2C#N)C1 (stereo not given) 11.5%
CCC(C(=O)NCCc1ccc(OC)c(OC)c1)n1nc(C)c2sc3ccccc3c2c1=O (stereo not given) 2.27%
Cc1ccc(OCC(=O)OCc2cc(=O)n3nc(C4CC4)sc3n2)cc1C -1.99%
Cc1cc(C)cc(-n2ccn3cnnc3c2=O)c1 6.14%
CCCCCCSc1nc(N)c2c3c(sc2n1)CCCC3C (stereo not given) -12.5%
CSc1cccc(Nc2cc(C(=O)NC3CCCCC3)c3ccccc3n2)c1 9.51%
COc1ccc(C)cc1NC(=O)Cn1c(=O)oc2cc(S(=O)(=O)N3CCCCCC3)ccc21 -18.9%
CCc1ccc2occ(CC(=O)Nc3c(C(=O)c4ccc(F)cc4)oc4ccccc34)c2c1 -17.4%
CCCN(CCC)c1cc(C)nc2nc(-c3ccc(C(C)(C)C)cc3)nn12 3.94%
CN(C)c1ccc(-c2nc3ccc(Cl)cn3c2Nc2ccc3c(c2)OCCO3)cc1 0.0263%
Cc1cc(C)cc(N2C(=O)CSC23C(=O)N(CC(N)=O)c2ccccc23)c1 (stereo not given) -8.36%
Cn1nc(-c2ccccc2)c(-c2ccccc2)c(C(=O)Nc2ccccc2C(N)=O)c1=O -6.58%
CCOC(=O)c1ccc(NC(=O)c2cc(=O)c3ccc(C)c(C)c3o2)cc1 -11.6%
CC(=O)N1CCc2cc(Br)cc(S(=O)(=O)CCC(=O)N3CCN(c4cccc(C)c4C)CC3)c21 -10%
COCCN(Cc1ccc(C)c(Br)c1)S(=O)(=O)c1ccc2[nH]c(=O)ccc2c1 -10.3%
CCOCCCNC(=O)Cn1ncc2c([nH]c3ccc(C)cc32)c1=O -8.96%
Cc1ccc(C)c(N2CCN(C3(c4ccccc4)C(=O)c4ccccc4C3=O)CC2)c1 -13.7%
CCCN(CCC)CCNC(=O)c1cc2c(=O)oc3ccc(C)cc3c2s1 4.23%
CC(C)Cc1nn2c(=O)cc(COC(=O)c3cccc(NC(=O)c4ccccc4)c3)nc2s1 -14.8%
COc1ccc(NC(=O)c2cc(C3CC3)nc3c2c(C)nn3-c2ccccc2)c(OC)c1 -5.19%
Cc1c(C(=O)Nc2cccc(C(F)(F)F)c2)sc2nc3n(c(=O)c12)CCC3 -15.3%
Cc1cccc(Cn2cc3c(=O)n(CC(=O)Nc4cccc(C)c4C)nc-3c3cc(F)ccc32)c1 -3.86%
Cc1cccc(N2CCN(C(=O)c3cc4ccc5cccnc5c4[nH]3)CC2)c1C -13.6%
CCc1ccccc1NC(=O)N1CCN(Cc2nc3ccc(C)cc3o2)CC1 -9.6%
COCCn1c(C)cc(O)c(C(c2ccccc2)N2CCCCC2)c1=O (stereo not given) -10.8%
Cc1ccc(-n2ncc3c(Nc4ccc(Oc5ccccc5)cc4)ncnc32)cc1 -10.4%
Clc1ccccc1CNCCCSc1nnnn1-c1ccccc1 -13.4%
Cc1noc(C)c1S(=O)(=O)N(CC(=O)Nc1ccc(C(F)(F)F)cc1)c1ccc(C(C)C)cc1 -5.05%
CCOc1ccc(/C=C/c2nc(C#N)c(NCc3ccc(OC)cc3)o2)cc1 -5.35%
CCOCCCNC(=O)Cn1ncc2c([nH]c3ccccc32)c1=O -5.48%
O=C(CCCN1CCC(O)(c2ccc(Cl)cc2)CC1)c1ccc(F)cc1 -12%
O=C(NCc1ccc2c(c1)CCN2C(=O)c1ccc(F)cc1)c1c(F)cccc1F -13.6%
COc1cccc(-c2noc(-c3cc4ccccc4oc3=O)n2)c1OC 2.14%
CCN(CC)S(=O)(=O)c1ccc2c(c1)N(CC(=O)Nc1cccc(C)c1C)C(=O)C1CCCN21 (stereo not given) -13.2%
CCOC(=O)N1CCN(Cc2nc3cc(NC(=O)CC(C)C)ccc3n2C(C)C)CC1 -5.5%
COC(=O)c1ccc(NC(=O)C(=O)NCCc2csc3nc(-c4ccccc4F)nn23)cc1 -11.4%
CC1=C(C(=O)Nc2ccccc2)C(c2ccc(F)cc2)n2nc(SCc3cc(C)ccc3C)nc2N1 (stereo not given) -11.5%
CCOc1ccccc1NC(=O)CSc1cn(CC(=O)N2CCCCCC2)c2ccccc12 -0.77%
COc1cc(OC)c(NC(=O)C(CC(C)C)N2Cc3ccccc3C2=O)cc1Cl (stereo not given) -22.9%
Cc1ccc(NC(=O)CCN2C(=O)c3ccccc3Sc3ncccc32)cc1 -0.662%
Nc1nonc1-c1nc2ccccc2n1CC(=O)Nc1cccc(C(F)(F)F)c1 -2.22%
COc1ccc(C)cc1NC(=O)CSc1ncc2c(n1)-c1ccc(Cl)cc1N(Cc1ccccc1)S2(=O)=O 0.195%
CCCN1CCN(CCCNC(=O)c2cc3c(s2)-c2c(C)cccc2OC3)CC1 -0.683%
NC(=O)c1c(NC(=O)CS(=O)(=O)c2ccc(Cl)cc2)sc2c1CCCC2 -24.2%
O=C(c1cccc(Cl)c1)N(Cc1cccc(F)c1)C1CCS(=O)(=O)C1 (stereo not given) -8.79%
COc1ccc(NC(=O)C2CCCN(S(=O)(=O)c3ccc4[nH]c(=O)ccc4c3)C2)cc1Cl (stereo not given) -4.93%
COC(=O)c1cc2sccc2n1Cc1c(C)cc(C)cc1C -13.2%
COc1ccc(S(=O)(=O)N(CCc2ccccc2)CC(=O)Nc2cc(Cl)ccc2C)cc1 -10.1%
CCCSc1nnc(NC(=O)c2cc(=O)c3ccccc3o2)s1 -15.9%
CCOC(=O)N1CCc2c(sc3c2c(=O)n(CCc2ccccc2)c(=O)n3CC(=O)Nc2ccccc2C)C1 -10.8%
Cc1ccc(NC(=O)C2CCN(C(=O)c3sc4nc[nH]c(=O)c4c3C)CC2)cc1F 1.06%
Cc1ccc(-c2nn(CCC(=O)Nc3ccc(OC(F)(F)F)cc3)c(=O)c3ccccc23)cc1 1.11%
Cc1ccc(C)c(OCCCC(C)(C)C(=O)O)c1 -7.88%
CCOc1cccc(C(=O)N(Cc2ccc(C(C)C)cc2)C2CCS(=O)(=O)C2)c1 (stereo not given) -5.27%
COc1ccccc1C(=O)Nc1ccccc1OCc1cc(=O)n2cc(C)sc2n1 -9.04%
CCCCCn1c(CCCNC(=O)c2ccccc2)nc2ccccc21 -6.67%
O=C(Nc1ncc(Cc2ccc(F)cc2)s1)c1ccc2c(c1)CC(c1ccccc1)OC2=O (stereo not given) -8.04%
CCCC(=O)N1c2nc(-c3ccco3)nn2C2(CCCCC2)[C@@H]2CCCC[C@@H]21 2.84%
COc1cccc(NC(=O)Cn2c(=O)n(-c3ccc(C)cc3)c(=O)c3ccccc32)c1 -7.98%
CCN1C(=O)C(Cc2nc3ccccc3c(=O)n2-c2cccc(C)c2)c2ccccc21 (stereo not given) -16.8%
Cc1ccc(-c2noc(-c3ccccc3OCC(=O)Nc3ccccc3[N+](=O)[O-])n2)cc1 14.3%
Cc1ccccc1NC(=O)c1c(C)oc2ccc(O)c(CN(C)Cc3ccccc3)c12 -17.4%
CC(C)Oc1ccc(C(=O)NCCc2csc(-c3cccc(F)c3)n2)cc1 -6.65%
Cc1cccc(N(C)C(=O)Cn2cnc3nc4c(cc3c2=O)CCCC4)c1 -12.8%
Cc1nnc(N2CCC(C(=O)NC3CCC(C)CC3)CC2)c2nn(-c3ccc(Cl)cc3)c(C)c12 (stereo not given) -0.479%
